# Experimental data reported in article PMC12820563, “FoxP3 forms a head-to-head dimer in vivo and stabilizes its multimerization on adjacent microsatellites”.
# This is one part of the list.
# Target: T1, MBP-FoxP1dN (Mus musculus, UniProt P58462 326-579)
# T1 sequence: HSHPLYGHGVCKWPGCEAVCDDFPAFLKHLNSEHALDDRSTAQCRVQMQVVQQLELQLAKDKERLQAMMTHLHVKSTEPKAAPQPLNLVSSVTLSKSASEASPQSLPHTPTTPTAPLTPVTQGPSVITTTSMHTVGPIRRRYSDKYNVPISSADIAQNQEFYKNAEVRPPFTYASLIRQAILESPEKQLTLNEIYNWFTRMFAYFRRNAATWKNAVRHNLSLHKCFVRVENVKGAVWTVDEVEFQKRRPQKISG
# Assay: PD-seq (MBP pull-down with sequencing); 20 mM Tris-HCl pH 7.5, 100 mM NaCl, 1.5 mM MgCl2, 0.4 uM protein, 0.1 uM dsDNA library, 30 min, room temperature, amylose pull-down; high values mean tight binding
# Details: protein: recombinant; tags: His6-MBP; chain copies: 2; dsDNA, one strand shown
# Procedure, shortened: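 In Tris pH 7.5 buffer with NaCl and MgCl2, 0.4 µM His6-MBP-tagged mouse FoxP3 or FoxP1 fragment lacking the N-terminus, from E. coli, met 0.1 µM Klenow-filled double-stranded degenerate DNA library for 30 min at room temperature. Three washes on amylose resin followed capture of the complexes, then proteinase K release of DNA, PCR barcoding and Illumina sequencing. Binding is taken as pooled-replicate reads-per-million enrichment of pull-down relative to input.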
row,Sequence,binding signal
1,GATGATTGTTCTCCCAGCTGATGAATTAGAGTTGTCGAGTAAACAAATTTTCCTAATCTTTCTGTTCAAGCGCCATCTAC,1.14 RPM ratio (pull-down/input)
2,GATGATTGTTCTCCCAGCTGATGAATTAGATTAATCGAGTAAACAAATTTTCCTAATCTTTCTGTTCAAGCGCCATCTAC,1.1 RPM ratio (pull-down/input)
3,GATGATTGTTCTCCCAGCTGATGAATTCAGATAATCGAGTAAACAAATTTTCCTAATCTTTCTGTTCAAGCGCCATCTAC,1.19 RPM ratio (pull-down/input)
4,GATGATTGTTCTCCCAGCTGATGAATTCCCGCGTTCGAGTAAACAAATTTTCCTAATCTTTCTGTTCAAGCGCCATCTAC,0.922 RPM ratio (pull-down/input)
5,GATGATTGTTCTCCCAGCTGATGAATTCTGTGTCTCGAGTAAACAAATTTTCCTAATCTTTCTGTTCAAGCGCCATCTAC,0.971 RPM ratio (pull-down/input)
6,GATGATTGTTCTCCCAGCTGATGAATTCGCACCGTCGAGTAAACAAATTTTCCTAATCTTTCTGTTCAAGCGCCATCTAC,0.878 RPM ratio (pull-down/input)
7,GATGATTGTTCTCCCAGCTGATGAATTACCTAGTTCGAGTAAACAAATTTTCCTAATCTTTCTGTTCAAGCGCCATCTAC,0.987 RPM ratio (pull-down/input)
8,GATGATTGTTCTCCCAGCTGATGAATTACCCCCGTCGAGTAAACAAATTTTCCTAATCTTTCTGTTCAAGCGCCATCTAC,0.876 RPM ratio (pull-down/input)
9,GATGATTGTTCTCCCAGCTGATGAATTTGTCGGTTCGAGTAAACAAATTTTCCTAATCTTTCTGTTCAAGCGCCATCTAC,1.01 RPM ratio (pull-down/input)
10,GATGATTGTTCTCCCAGCTGATGAATTAGACCCATCGAGTAAACAAATTTTCCTAATCTTTCTGTTCAAGCGCCATCTAC,0.927 RPM ratio (pull-down/input)
11,GATGATTGTTCTCCCAGCTGATGAATTCTGCAGGTCGAGTAAACAAATTTTCCTAATCTTTCTGTTCAAGCGCCATCTAC,0.748 RPM ratio (pull-down/input)
12,GATGATTGTTCTCCCAGCTGATGAATTAATGGAATCGAGTAAACAAATTTTCCTAATCTTTCTGTTCAAGCGCCATCTAC,0.934 RPM ratio (pull-down/input)
13,GATGATTGTTCTCCCAGCTGATGAATTAATATTGTCGAGTAAACAAATTTTCCTAATCTTTCTGTTCAAGCGCCATCTAC,2.15 RPM ratio (pull-down/input)
14,GATGATTGTTCTCCCAGCTGATGAATTCCTGCTATCGAGTAAACAAATTTTCCTAATCTTTCTGTTCAAGCGCCATCTAC,0.953 RPM ratio (pull-down/input)
15,GATGATTGTTCTCCCAGCTGATGAATTGATCCGCTCGAGTAAACAAATTTTCCTAATCTTTCTGTTCAAGCGCCATCTAC,0.939 RPM ratio (pull-down/input)
16,GATGATTGTTCTCCCAGCTGATGAATTTAATGGGTCGAGTAAACAAATTTTCCTAATCTTTCTGTTCAAGCGCCATCTAC,0.818 RPM ratio (pull-down/input)

row,Sequence,binding signal
1,GATGATTGTTCTCCCAGCTGATGAATTCTTTTAATCGAGTAAACAAATTTTCCTAATCTTTCTGTTCAAGCGCCATCTAC,0.969 RPM ratio (pull-down/input)
2,GATGATTGTTCTCCCAGCTGATGAATTACATTCGTCGAGTAAACAAATTTTCCTAATCTTTCTGTTCAAGCGCCATCTAC,1.15 RPM ratio (pull-down/input)
3,GATGATTGTTCTCCCAGCTGATGAATTCGGGGTGTCGAGTAAACAAATTTTCCTAATCTTTCTGTTCAAGCGCCATCTAC,0.819 RPM ratio (pull-down/input)
4,GATGATTGTTCTCCCAGCTGATGAATTGCGAGCGTCGAGTAAACAAATTTTCCTAATCTTTCTGTTCAAGCGCCATCTAC,1.01 RPM ratio (pull-down/input)
5,GATGATTGTTCTCCCAGCTGATGAATTGATGAGATCGAGTAAACAAATTTTCCTAATCTTTCTGTTCAAGCGCCATCTAC,0.928 RPM ratio (pull-down/input)
6,GATGATTGTTCTCCCAGCTGATGAATTACATGTTTCGAGTAAACAAATTTTCCTAATCTTTCTGTTCAAGCGCCATCTAC,1.31 RPM ratio (pull-down/input)
7,GATGATTGTTCTCCCAGCTGATGAATTAAGTGTCTCGAGTAAACAAATTTTCCTAATCTTTCTGTTCAAGCGCCATCTAC,0.914 RPM ratio (pull-down/input)
8,GATGATTGTTCTCCCAGCTGATGAATTGGTGTGGTCGAGTAAACAAATTTTCCTAATCTTTCTGTTCAAGCGCCATCTAC,1.04 RPM ratio (pull-down/input)
9,GATGATTGTTCTCCCAGCTGATGAATTTTAAAGCTCGAGTAAACAAATTTTCCTAATCTTTCTGTTCAAGCGCCATCTAC,0.881 RPM ratio (pull-down/input)
10,GATGATTGTTCTCCCAGCTGATGAATTGAACAATTCGAGTAAACAAATTTTCCTAATCTTTCTGTTCAAGCGCCATCTAC,0.984 RPM ratio (pull-down/input)
11,GATGATTGTTCTCCCAGCTGATGAATTGCCAATATCGAGTAAACAAATTTTCCTAATCTTTCTGTTCAAGCGCCATCTAC,1.28 RPM ratio (pull-down/input)
12,GATGATTGTTCTCCCAGCTGATGAATTATTAGGGTCGAGTAAACAAATTTTCCTAATCTTTCTGTTCAAGCGCCATCTAC,0.905 RPM ratio (pull-down/input)
13,GATGATTGTTCTCCCAGCTGATGAATTCGGAAGTTCGAGTAAACAAATTTTCCTAATCTTTCTGTTCAAGCGCCATCTAC,0.856 RPM ratio (pull-down/input)
14,GATGATTGTTCTCCCAGCTGATGAATTATATGAGTCGAGTAAACAAATTTTCCTAATCTTTCTGTTCAAGCGCCATCTAC,0.962 RPM ratio (pull-down/input)
15,GATGATTGTTCTCCCAGCTGATGAATTATCGGAGTCGAGTAAACAAATTTTCCTAATCTTTCTGTTCAAGCGCCATCTAC,0.871 RPM ratio (pull-down/input)
